Experimental data taken from the supplement of paper PMC9151546.
Single values are uncertain, as repeats are few or missing.

Columns and labels:
CHO-K1 [1] = test: micronucleus frequency (% of nucleated events); higher = more micronuclei (genotoxic)
CHO-K1 [2] = test: relative survival (nuclei to bead ratio vs DMSO control) (% of vehicle control); higher = more surviving cells
Experimental: (§1)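 Flow-cytometric in vitro micronucleus assay (Litron MicroFlow) in CHO-K1 cells in 96-well plates, 19 concentrations (4.5-200 µM, n=1 per concentration). Without S9, cells were exposed for 24 h and sampled at 48 h. With Aroclor 1254-induced rat liver S9, cells were exposed for 3-4 h and sampled at 27-28 h. Read-outs are %MN and %hypodiploid nuclei relative to nucleated events, and relative survival as the nuclei-to-bead ratio versus the 1% DMSO vehicle control (x100).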

CHO-K1 [3] = test: hypodiploid nuclei frequency (% of nucleated events); higher = more hypodiploid events (aneugenic)
Experimental: as §1
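Wherever hypodiploid nuclei frequency (% of nucleated events) is given: hypodiploid nuclei gated on a flow cytometer with 488 nm excitation after SYTOX Green staining, cultures at 37 °C, positive controls vinblastine without S9 and cyclophosphamide with S9.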
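Wherever micronucleus frequency (% of nucleated events) is given: cells lysed with nuclei stained by SYTOX Green, then micronucleus-gated events counted against nucleated events by flow cytometry with 488 nm excitation.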
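Wherever relative survival (nuclei to bead ratio vs DMSO control) is given: Lysed-cell nuclei stained with SYTOX Green and counted against counting beads by flow cytometry at 488 nm excitation, with vinblastine (no S9) and cyclophosphamide (plus S9) as positive controls.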

C[C@]12CC[C@@H]3c4ccc(O)cc4CC[C@H]3[C@@H]1CC[C@@H]2O [17beta-Estradiol]
Conditions	hypodiploid nuclei frequency, CHO-K1 [3] [%]	micronucleus frequency, CHO-K1 [1] [%]	relative survival, CHO-K1 [2]
concentration: 4.5 (µM), S9 metabolic activation: with S9, exposure time: 3-4 hours	0.1	1.64	188
concentration: 4.5 (µM), S9 metabolic activation: without S9, exposure time: 24 hours	0.9	1.62	122
concentration: 5.63 (µM), S9 metabolic activation: with S9, exposure time: 3-4 hours	0.24	1.48	159
concentration: 5.63 (µM), S9 metabolic activation: without S9, exposure time: 24 hours	1	2.44	104
concentration: 7.04 (µM), S9 metabolic activation: with S9, exposure time: 3-4 hours	0.24	1.36	138
concentration: 7.04 (µM), S9 metabolic activation: without S9, exposure time: 24 hours	1.24	1.98	96.7
concentration: 8.8 (µM), S9 metabolic activation: with S9, exposure time: 3-4 hours	0.24	1.4	128
concentration: 8.8 (µM), S9 metabolic activation: without S9, exposure time: 24 hours	1.1	1.94	99.5
concentration: 11 (µM), S9 metabolic activation: with S9, exposure time: 3-4 hours	0.18	1.14	137
concentration: 11 (µM), S9 metabolic activation: without S9, exposure time: 24 hours	1.36	3.48	85.6
concentration: 13.7 (µM), S9 metabolic activation: with S9, exposure time: 3-4 hours	0.16	1.16	151
concentration: 13.7 (µM), S9 metabolic activation: without S9, exposure time: 24 hours	1.96	3.38	87
concentration: 17.2 (µM), S9 metabolic activation: with S9, exposure time: 3-4 hours	0.18	1.68	118
concentration: 17.2 (µM), S9 metabolic activation: without S9, exposure time: 24 hours	3.14	5.74	89.3
concentration: 21.5 (µM), S9 metabolic activation: with S9, exposure time: 3-4 hours	0.16	1.68	99.8
concentration: 21.5 (µM), S9 metabolic activation: without S9, exposure time: 24 hours	5.26	8.82	102
concentration: 26.8 (µM), S9 metabolic activation: with S9, exposure time: 3-4 hours	0.16	1.44	179
concentration: 26.8 (µM), S9 metabolic activation: without S9, exposure time: 24 hours	17.3	12.6	60.9
concentration: 33.6 (µM), S9 metabolic activation: with S9, exposure time: 3-4 hours	0.24	1.68	151
concentration: 33.6 (µM), S9 metabolic activation: without S9, exposure time: 24 hours	17.2	15.4	87
concentration: 41.9 (µM), S9 metabolic activation: with S9, exposure time: 3-4 hours	0.14	1.56	143
concentration: 41.9 (µM), S9 metabolic activation: without S9, exposure time: 24 hours	25.2	23	65.1
concentration: 52.4 (µM), S9 metabolic activation: with S9, exposure time: 3-4 hours	0.36	1	109
concentration: 52.4 (µM), S9 metabolic activation: without S9, exposure time: 24 hours	29.3	27.4	48.8
concentration: 65.5 (µM), S9 metabolic activation: with S9, exposure time: 3-4 hours	0.38	1.32	108
concentration: 65.5 (µM), S9 metabolic activation: without S9, exposure time: 24 hours	–	–	39.5
concentration: 81.9 (µM), S9 metabolic activation: with S9, exposure time: 3-4 hours	0.42	1.2	86.2
concentration: 81.9 (µM), S9 metabolic activation: without S9, exposure time: 24 hours	–	–	33.7
concentration: 102 (µM), S9 metabolic activation: with S9, exposure time: 3-4 hours	0.28	1.74	83.2
concentration: 102 (µM), S9 metabolic activation: without S9, exposure time: 24 hours	–	–	36.9
concentration: 128 (µM), S9 metabolic activation: with S9, exposure time: 3-4 hours	0.26	1.84	86.2
concentration: 128 (µM), S9 metabolic activation: without S9, exposure time: 24 hours	–	–	34.4
concentration: 160 (µM), S9 metabolic activation: with S9, exposure time: 3-4 hours	0.26	1.44	86
concentration: 160 (µM), S9 metabolic activation: without S9, exposure time: 24 hours	–	–	33.4
concentration: 200 (µM), S9 metabolic activation: with S9, exposure time: 3-4 hours	0.18	1.7	104
concentration: 200 (µM), S9 metabolic activation: without S9, exposure time: 24 hours	–	–	31.2

c1cc2c3c(cccc3c1)CC2 [Acenaphthene]
Conditions	hypodiploid nuclei frequency, CHO-K1 [3] [%]	micronucleus frequency, CHO-K1 [1] [%]	relative survival, CHO-K1 [2]
concentration: 4.5 (µM), S9 metabolic activation: with S9, exposure time: 3-4 hours	0.26	1.42	126
concentration: 4.5 (µM), S9 metabolic activation: without S9, exposure time: 24 hours	0.44	2.72	121
concentration: 5.63 (µM), S9 metabolic activation: with S9, exposure time: 3-4 hours	0.24	1.74	110
concentration: 5.63 (µM), S9 metabolic activation: without S9, exposure time: 24 hours	0.44	1.88	163
concentration: 7.04 (µM), S9 metabolic activation: with S9, exposure time: 3-4 hours	0.22	1.3	122
concentration: 7.04 (µM), S9 metabolic activation: without S9, exposure time: 24 hours	0.46	1.38	131
concentration: 8.8 (µM), S9 metabolic activation: with S9, exposure time: 3-4 hours	0.36	1.46	112
concentration: 8.8 (µM), S9 metabolic activation: without S9, exposure time: 24 hours	0.4	1.88	126
concentration: 11 (µM), S9 metabolic activation: with S9, exposure time: 3-4 hours	0.28	1.84	118
concentration: 11 (µM), S9 metabolic activation: without S9, exposure time: 24 hours	0.62	1.52	157
concentration: 13.7 (µM), S9 metabolic activation: with S9, exposure time: 3-4 hours	0.14	1.08	94.2
concentration: 13.7 (µM), S9 metabolic activation: without S9, exposure time: 24 hours	0.38	1.52	133
concentration: 17.2 (µM), S9 metabolic activation: with S9, exposure time: 3-4 hours	0.22	1.06	101
concentration: 17.2 (µM), S9 metabolic activation: without S9, exposure time: 24 hours	0.58	2.52	119
concentration: 21.5 (µM), S9 metabolic activation: with S9, exposure time: 3-4 hours	0.2	1.1	119
concentration: 21.5 (µM), S9 metabolic activation: without S9, exposure time: 24 hours	0.44	1.7	92.8
concentration: 26.8 (µM), S9 metabolic activation: with S9, exposure time: 3-4 hours	0.18	1.26	119
concentration: 26.8 (µM), S9 metabolic activation: without S9, exposure time: 24 hours	0.64	1.68	110
concentration: 33.6 (µM), S9 metabolic activation: with S9, exposure time: 3-4 hours	0.28	1.16	141
concentration: 33.6 (µM), S9 metabolic activation: without S9, exposure time: 24 hours	0.38	2	116
concentration: 41.9 (µM), S9 metabolic activation: with S9, exposure time: 3-4 hours	0.18	1.34	143
concentration: 41.9 (µM), S9 metabolic activation: without S9, exposure time: 24 hours	0.74	2.5	112
concentration: 52.4 (µM), S9 metabolic activation: with S9, exposure time: 3-4 hours	0.28	1.9	143
concentration: 52.4 (µM), S9 metabolic activation: without S9, exposure time: 24 hours	0.74	2.86	118
concentration: 65.5 (µM), S9 metabolic activation: with S9, exposure time: 3-4 hours	0.28	1.82	122
concentration: 65.5 (µM), S9 metabolic activation: without S9, exposure time: 24 hours	0.38	1.92	128
concentration: 81.9 (µM), S9 metabolic activation: with S9, exposure time: 3-4 hours	0.28	2.12	90.2
concentration: 81.9 (µM), S9 metabolic activation: without S9, exposure time: 24 hours	0.6	2.36	123
concentration: 102 (µM), S9 metabolic activation: with S9, exposure time: 3-4 hours	0.38	2.92	88.3
concentration: 102 (µM), S9 metabolic activation: without S9, exposure time: 24 hours	0.48	3.1	121
concentration: 128 (µM), S9 metabolic activation: with S9, exposure time: 3-4 hours	0.97	17.7	46.5
concentration: 128 (µM), S9 metabolic activation: without S9, exposure time: 24 hours	0.76	2.46	118
concentration: 160 (µM), S9 metabolic activation: with S9, exposure time: 3-4 hours	–	–	35.9
concentration: 160 (µM), S9 metabolic activation: without S9, exposure time: 24 hours	0.78	3	105
concentration: 200 (µM), S9 metabolic activation: without S9, exposure time: 24 hours	0.7	3.16	101
